Laboratory results: the supplement of paper PMC5499739
In all, about 16,000 sequences were measured (“Z-score”: median about -0.37, highest 2% from about 3.1 on). Some of the results follow.

Test system: RBM10 RRM1-ZnF-RRM2 (GST-tagged construct)
Assay: RNAcompete 7-mer binding Z-score; higher = stronger binding preference
In short: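 A designed pool of 241 399 RNAs, each up to 41 nt and transcribed from microarray-derived DNA templates, was used at 1.5 nmol with 20 pmol of GST-tagged RBM10 constructs. The mixture, in 1 ml Hepes pH 7.8 buffer with KCl, NaCl, glycerol, DTT, BSA and glutathione Sepharose beads, was held 30 min at 4°C and then washed four times for 2 min at 4°C. Bound RNA was read out by microarray hybridisation, and enrichment of each heptamer motif was scored as a one-sided Z-score over the probes carrying it.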

Sequence | RNAcompete 7-mer binding Z-score
CUUGUCA | -0.93
UCAAAUA | -0.653
CUGAAAU | -0.632
CGAUGAG | 0.752
AACCUAA | -0.734
UCCCUGC | -0.741
ACACCGA | -0.515
GCGGCAG | 0.887
UUGUCUA | -0.694
GUACCCC | -0.242
UGAUGUC | -0.664
GGCCUUG | -0.256
AGCGAUA | 0.243
UGCAUAC | -0.362
UUUUCAU | -0.457
UUGCUUU | -0.694
AGCUGUU | -0.814
AUCUUUG | -0.846
AAGAUGG | 2.68
CUCCGAU | -0.832
AUAUAAA | -0.42
ACCACGU | -0.431
AGCAAAA | -0.0197

Sequence | RNAcompete 7-mer binding Z-score
CAAUUAC | -0.675
CUCGCCA | -0.726
UUGUACC | -0.697
GGGAGCA | 2.48
GUUUUAA | -0.377
GGUUUCG | 1.12
GUGCUGU | -0.271
CCCCCGU | -0.406
UUCGACA | -0.595
GGUCGUA | 0.567
AACGAAG | 0.345
CUAUCCA | -0.788
GUACCCG | -0.373
CUUAAUG | -0.679
UUCGGCU | -0.61
CUCUACU | -0.806
ACUACUA | -0.617
ACCGUAG | -0.147
CCAUUGG | -0.53
UGCAAAC | -0.293
GUUGCGU | 0.199
GUCUGAG | -0.0925
GUCUCAU | -0.679

Sequence | RNAcompete 7-mer binding Z-score
GUUGUCC | -0.482
AUCUUAG | -0.592
GCGUUAG | 0.352
AAUUUAC | -0.701
GUGGUAA | 1.81
UAGCUCG | -0.213
CAUCCUA | -0.897
GGUGUUG | 1.72
AGGAUAC | 0.811
GAGGGGG | 2.83
GCACGCU | -0.566
GGGUUGA | 3.53
CCACGCG | -0.584
UACGACA | -0.213
UAUCCCG | -0.81
AUCCGGG | 0.632
GCCCCGG | -0.122
UGUGGUG | 1.57
CUAUGCC | -0.897
UAAUGCA | -0.333
ACCUAGG | -0.125
CUCGAUC | -0.843
ACUAAAU | -0.515

Sequence | RNAcompete 7-mer binding Z-score
CCGUACA | -0.661
AGCCACA | -0.675
UACUGGA | 0.141
CCUCGCG | -0.701
GCAUUAC | -0.209
AAAAGCG | 0.629
AAUUCGA | -0.497
GUACUGU | -0.238
AGGGAGU | 3.13
GGUGCUC | 0.33
ACCUUAG | -0.697
GCAUAUA | -0.0561
GGUGCGU | 1.28
UUCUAAA | -0.744
GUGCAGA | 0.487
GUUUUGA | -0.26
GCCACUC | -0.712
GUGUAUU | -0.0925
UCGUGGC | 0.188
AUGGUCA | 1.17
CGACAUA | -0.537
UGAGAGG | 1.8
CACCGCG | -0.147

Sequence | RNAcompete 7-mer binding Z-score
ACCAAUC | -0.675
UUUGUGC | -0.73
AAGUUAU | -0.38
UUUAUCU | -0.715
UCAUCCG | -0.613
AGUUACA | -0.0197
GCUCACG | -0.457
CCACUGG | -0.384
AUGUGGA | 2.02
GAGCGAC | 0.177
ACGGGAC | 2.19
UACCUCA | -0.672
GCCAAUC | -0.351
CUAAUAA | -0.544
GGUCGCC | -0.322
UAACACG | -0.307
CUUAUAC | -0.795
GGGUCGU | 2
UGGUGGU | 2.37
GCACUCC | -0.602
GUUUGAU | -0.326
GGCAAAA | 0.964
UUAGUUG | -0.249

Sequence | RNAcompete 7-mer binding Z-score
GAAUGCC | -0.311
UUACUAU | -0.774
UUGAGCG | 0.239
UCUGAUA | -0.61
UAAUCUG | -0.868
UUACUGG | 0.0204
CGGACAA | 0.403
GUUCGAG | 0.0386
GACGUUU | -0.704
UAUACUA | -0.544
AUUAGAG | 0.388
GAGAGCA | 0.465
UAUUUCU | -0.763
AUUCCCU | -0.817
UCACAGU | -0.329
GAUACUA | -0.246
AUUGCUA | -0.511
UGACAGU | -0.22
CAGCUGG | 0.275
GAGCGAG | 3.3
CAGGAUG | 1.64
UAUCAGG | 0.658
CGGCGUA | 0.148

Sequence | RNAcompete 7-mer binding Z-score
UGUGCCG | -0.344
GCUCUCU | -0.701
CGAUCUU | -0.85
UAAAGUA | -0.209
GUGCCUU | -0.661
CAGGCGU | 0.931
AUAGAUU | -0.205
UGUGCAA | -0.078
CACCUCA | -0.664
AUGUGCU | -0.522
UAUCUUC | -0.632
GCCCCAC | -0.646
ACCUGUG | -0.668
UAGUAAC | -0.38
GCUUUUA | -0.723
UUCCGAG | -0.621
AUUAAUA | -0.544
GCCAGCU | -0.413
GACAUCC | -0.683
GGGCUAC | 1.09
UAGCUGG | 0.661
AAUAGAC | -0.0998
CGACAGA | -0.151

Sequence | RNAcompete 7-mer binding Z-score
ACACGAC | -0.508
CCGUAUA | -0.65
AUAGGCA | 1.38
GUCAGCA | 0.213
AGCGCAU | -0.442
CGUCUCG | -0.653
UCUGCUA | -0.894
AGCUAAU | -0.453
AGCACCA | -0.384
GCCAUCC | -0.788
CGAGUUG | 0.0677
GAAUAAA | -0.00148
AACGGCG | 0.836
AAGGUAG | 3.82
UGCGGAU | 0.228
CUAUGGA | 0.119
GUAUGCU | -0.195
UCGCCUU | -0.934
CAAGCUA | -0.398
GUCUCUG | -0.544
GACAAUC | -0.46
UCCUACG | -0.65
UCUCCUG | -0.661
